Reference: PubChem BioAssay AID651820 (National Center for Advancing Translational Sciences (NCATS), 2012)
Among all 340,000 compounds or so, about 12,000 (3.5%) were called active. The inconclusive results got no clear call from the source; some entries with a clear call stand among them for comparison. Calls follow the shape of the dose curve; as a rule, active = well fitted inhibition curve with a large enough effect; inconclusive = small, poorly fitted or top-dose-only effect, or another doubt; inactive = no such curve, though single readings can be large or run the other way. No potency is given beside an inconclusive call; the fits are too rough.

assay: qHTS Assay for Inhibitors of Hepatitis C Virus (HCV); details: Huh7.5.1 HCVcc-Cre (HCVcc is cell-culture hepatitis C virus) infection, luciferase reporter, 44 h; activity change, negative = inhibition: at 41.8 µM (top of the series) unless noted
Summary of the method: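 After 44 h co-culture of compound, cells and HCVcc-Cre (~0.5 moi), substrate is added for 15 min at room temperature and luciferase measured over 15 sec. Cells were seeded at 1,000/well and pre-cultured 4 h.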
% is scaled to controls: 0 for no effect and ±100 for the full control effect; potency is read from the fitted curve at half-maximal effect; tags tell the direction and shape of the fitted curve.

Structure (SMILES)	Potency	activity change, negative = inhibition
COc1ccc(C2=NOC(Cn3nc(C(=O)NCc4cccc(C(F)(F)F)c4)cc3-c3ccccc3)C2)cc1 (centres undefined)	inconclusive [inhibitor, single point]	
CN(C)CCN1C(=O)c2cccc3cc([N+](=O)[O-])cc(c23)C1=O	inconclusive [inhibitor, full curve]	
Cc1cc(N/N=C/c2ccc(Cl)cc2Cl)nc(NCc2ccccc2)n1	inconclusive [inhibitor, partial curve, poor fit]	
COc1ccc(/C=N/NC(=O)CCn2c3ccccc3c3ccccc32)cc1OC	inconclusive [inhibitor, partial curve]	
CCN(CC)S(=O)(=O)c1cc(NC(=O)CSCc2c(C)noc2C)ccc1C	inconclusive [inhibitor, partial curve]	
Cc1ccc(/C(N)=N/OC(=O)c2cccc(Cn3cc(C(F)(F)F)ccc3=O)c2)cc1	inconclusive [inhibitor, partial curve, poor fit]	
CCOc1ccc(NS(=O)(=O)c2ccc(C(=O)NCC(c3ccco3)N3CCCC3)cc2)cc1 (centres undefined)		inactive: -12.2%
COc1ccccc1N1CCN(C(=O)/C=C/c2ccc3c(c2)OCO3)CC1	inconclusive [inhibitor, partial curve]	
COc1ccc(CN2CC(=O)N(c3cc(Cl)ccc3OC)C2=S)cc1OC	active: 11.2 µM	
Cc1nc2cc(F)ccc2n1C1CCN(C(=O)c2c(F)cccc2F)CC1	inconclusive [inhibitor, single point]	
Cc1ccccc1OCCNC(=S)Nc1ccccc1	inconclusive [inhibitor, single point]	
O=c1cc2c(c(-c3ccccc3)n1Cc1ccccc1)[C@H](CCO)NC2		inactive: -27.4%
Nn1c(Cc2cccc3ccccc23)nnc1SCCOc1ccc(Br)cc1	inconclusive [inhibitor, partial curve]	
Cc1onc(-c2c(Cl)cccc2Cl)c1C(=O)N1CCN(Cc2ccccc2)CC1		inactive: 10.3%
CCSc1nnc(-c2sc3nnc(-c4ccccc4)c(-c4ccccc4)c3c2N)o1	inconclusive [inhibitor, single point]	
NS(=O)(=O)c1ccc(CCNC(=O)C2CCN(S(=O)(=O)c3cccc4cccnc34)CC2)cc1		inactive: 5.78%
Cc1nn(CC(=O)N/N=C/c2cccs2)c(C)c1[N+](=O)[O-]		inactive: 3.79%
COc1cc(/C=C/c2ccc3cccc(O)c3n2)cc(Cl)c1OC	inconclusive [inhibitor, partial curve]	
Cc1ccc(NC(=O)c2cc3ccccc3cc2O)cc1	inconclusive [inhibitor, single point]	
O=C(CN1C(=O)CSc2ccc(S(=O)(=O)N3CCCCCC3)cc21)NCCc1ccccc1		inconclusive: -31.2% [inhibitor]
COc1ccc(Nc2cc(C)c3ccccc3n2)cc1	inconclusive [inhibitor, single point]	
Cc1ccc2nc(CSc3nc(C)ccc3C#N)[nH]c2c1	inconclusive [inhibitor, partial curve]	

Structure (SMILES)	Potency	activity change, negative = inhibition
O=C(Nc1ccc(F)cc1F)Nc1csc2ccccc12	inconclusive [inhibitor, partial curve]	
COc1cccc(C(=O)c2c(C)c(CCC#N)n3ccccc23)c1OC		inactive: 13.8%
Cc1ccc(C)c(N2CCN(C(=O)c3cccn4c(=O)c5sccc5nc34)CC2)c1	inconclusive [inhibitor, partial curve]	
CCC(=O)NNC(=S)NC(=O)c1ccc(C)cc1		inactive: -18.8%
CCC(=O)c1ccc(OCC(=O)Nc2cccc(S(=O)(=O)N(C)c3ccccc3)c2)cc1	active: 11.2 µM	
COc1ccccc1N1CCN(c2ccc(-c3ccccc3)nn2)CC1	inconclusive [inhibitor, single point]	
CN(C)/C=C(\C#N)S(=O)(=O)C(C)(C)C	inconclusive [inhibitor, full curve]	
Cc1ccc(SCc2cc(=O)n3ccsc3n2)c(C)c1		inactive: -13.6%
Cc1ccc(Cn2c(=N)n(CC(O)c3ccco3)c3ccccc32)cc1 (centres undefined)	inconclusive [inhibitor, single point]	
COCc1c(CCl)cnc(C)c1O		inactive: -7.08%
Cc1ccc(C)c(OCC(O)CN2CCc3ccccc3C2)c1C (centres undefined)	inconclusive [inhibitor, partial curve]	
Cc1cc(C)cc(OCc2nc3ncc(Br)cc3[nH]2)c1	inconclusive [inhibitor, single point]	
Clc1ccc(C2=NOC(c3nnc(-c4ccccc4)o3)C2)cc1 (centres undefined)		inactive: -12.3% [at 8.37 µM]
COC(=O)c1nc(-c2ccccc2)oc1N1CCOCC1	inconclusive [inhibitor, partial curve, poor fit]	
CCCCCCCCNC(=O)c1cccnc1SCC(=O)Nc1ccc(OC)cc1OC	inconclusive [inhibitor, partial curve]	
O=C(Oc1ccc(Cl)c2ccccc12)N1CCCCC1	inconclusive [inhibitor, single point]	
CCOc1ccc(CCNC(=O)c2oc3c(c2C)-c2[nH]ncc2CC3)cc1OCC	inconclusive [inhibitor, partial curve]	
CCC1(c2ccc(Cl)cc2)NC(=O)N(Cc2ccc(C(=O)OC)cc2)C1=O (centres undefined)	active: 10 µM	
COc1ccc(Oc2ccc(/C=C/C(=O)c3cccc(OC)c3)cc2[N+](=O)[O-])cc1	inconclusive [inhibitor, single point]	
Cc1ccccc1CN(c1ccc(C(=O)NCc2ccccn2)cc1)S(C)(=O)=O		inactive: 15.2%
O=C(Cn1cnc2cc([N+](=O)[O-])ccc2c1=O)Nc1cccc(S(=O)(=O)N2CCOCC2)c1	inconclusive [inhibitor, partial curve, poor fit]	
N=c1c(C(=O)NCC2CCCO2)cc2c(=O)n3ccccc3nc2n1Cc1ccc(Cl)cc1 (centres undefined)	inconclusive [inhibitor, partial curve]	
